The record followed here is PubChem BioAssay (NCI).

Some test systems named below: MCF7 breast; OVCAR-4 ovarian; M14 melanoma; NCI-H23 lung; OVCAR-3 ovarian; A498 renal; SK-MEL-5 melanoma; HCC-2998 colon; HCT-116 colon; UACC-257 melanoma; RPMI-8226 leukemia; UO-31 renal; SF-539 CNS; EKVX NSCLC; MALME-3M melanoma; LOX IMVI melanoma; SK-MEL-2 melanoma; NCI-H226 lung; SNB-75 CNS; A549 NSCLC; CAKI-1 renal.
Common to all, as to test: inhibition of tumour cell growth, NCI panel, 48 h

Each structure is given as a SMILES string.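 Growth conditions: 96-well plates. Treatment: test compound, 48 hours, 5 concentrations. Analysis: linear interpolation between bracketing concentrations; unreached endpoints set to highest concentration. Here, GI50 denotes the concentration required for 50% inhibition of growth.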 The source holds more than one record for some entries. This list holds those alone. An entry can have further records. For some of these results: A record mostly stands for its own series of concentrations, not given here; a value can be the end of its range. For some of these results: Values given together are repeated measurements across runs, samples, wells, individuals or studies. Records carry a tag for their origin. Letters hold for one entry only.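 TGI is the concentration that stops growth completely.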

Regarding `CN[C@@H](Cc1cccc2ccccc12)C(=O)N[C@@H](CC(C)C)B(O)O`, the TGI in the assay on MCF7 breast was 222 nM and > 100 µM; with OVCAR-4 ovarian, 126 nM and > 100 µM.

Turning to `COc1ccc(-c2oc3c(OC)c(OC)c(OC)c(O)c3c(=O)c2OC)cc1O`, the TGI with M14 melanoma is 396 nM and 31 µM; with NCI-H23 lung, 611 nM and 30.1 µM; with OVCAR-3 ovarian, 296 nM and < 10 nM.

On to `CC(C)CCCCCCCCCCCCC(=O)NCC(=O)NC1C(C)OC(Nc2ncnc3nc[nH]c23)C(O)C1O` (configuration not stated), for which the GI50 with A498 renal was 1.15 nM and 42.4 nM; with UACC-257 melanoma, 3 nM and 31.6 nM. Further, the TGI with SK-MEL-5 melanoma is 9.11 nM and 110 nM; in the assay on HCC-2998 colon it was 6.19 nM and 247 nM; with HCT-116 colon, 8.94 nM, 132 nM, < 17.5 nM; with RPMI-8226 leukemia, 7.13 nM and 15.5 µM; in the assay on UO-31 renal, 4.68 nM and 606 nM; in the assay with SF-539 CNS, 5.33 nM and 215 nM. Also, the TGI was 971 nM and 20.1 nM in the assay on EKVX NSCLC; 4.96 nM and 72.4 nM in the assay on MALME-3M melanoma; 6.85 nM and 137 nM in the assay on LOX IMVI melanoma; 86.8 nM and 1.08 µM with SK-MEL-2 melanoma.

As for `CC[C@@]1(O)C[C@H](OC2CC(N(C)C)C(OC3CC(O)C(OC4CCC(=O)C(C)O4)C(C)O3)C(C)O2)c2c(cc3c(c2O)C(=O)c2c(O)cccc2C3=O)C1C(=O)OC` (some centres not stated), the TGI was 132 nM and 1.76 µM in the assay on NCI-H226 lung; 145 nM [1 test] and 2.03 µM [mean of 2 tests] with SNB-75 CNS.

As to `O=C(Nc1cn[nH]c1-c1nc2ccc(CN3CCOCC3)cc2[nH]1)NC1CC1`, the TGI with NCI-H226 lung is 733 nM [sample A, mean of 2 tests] and 8.74 µM [sample B, 1 test]. The GI50 was 310 nM [sample A, mean of 2 tests] and > 10 µM [sample B, 1 test] with A549 NSCLC; 891 nM [sample A, mean of 2 tests] and > 10 µM [sample B, 1 test] in the assay with CAKI-1 renal.
